Where a name gives a salt, the structure may show the parent alone. Some entries share one result that the patent states for a list of compounds. At least one compound was matched to its structure with a doubt left.
test system: T1, PDE4; experiment: In vitro determination of PDE4 inhibitory activity in the cell free assay (cAMP disappearance, U937 cell lysate supernatant); assay type: biochemical; conditions: U937 human monocytic cell lysate supernatant, compounds of formula (II), read-out: PDE4 inhibition (IC50, 50% inhibition of cAMP disappearance)
T1 construct: PDE4 activity was determined in U937 human monocytic supernatants cells lysate

SMILES	IC50 [nM]
O=C(O[C@@H](Cc1c(Cl)c[n+]([O-])cc1Cl)c1ccc(OC(F)F)c(OCC2CC2)c1)[C@@H]1CCCN1 [Compound 3, 3,5-dichloro-4-((S)-2-(3-(cyclopropylmethoxy)-4-(difluoromethoxy)phenyl)-2-((S)-pyrrolidine-2-carbonyloxy)ethyl)pyridine 1-oxide hydrochloride]	1 to 10
O=C(OC(Cc1c(Cl)c[n+]([O-])cc1Cl)c1ccc(OC(F)F)c(OCC2CC2)c1)C1CNCCO1 (stereo not drawn) [Compound 8]	0.1 to 1
O=C(O[C@@H](Cc1c(Cl)c[n+]([O-])cc1Cl)c1ccc(OC(F)F)c(OCC2CC2)c1)[C@H]1CCCCN1 [Compound 9]	1 to 10
O=C(O[C@@H](Cc1c(Cl)c[n+]([O-])cc1Cl)c1ccc(OC(F)F)c(OCC2CC2)c1)[C@@H]1CCCCN1 [Compound 10]	1 to 10
O=C(O[C@@H](Cc1c(Cl)c[n+]([O-])cc1Cl)c1ccc(OC(F)F)c(OCC2CC2)c1)[C@@H]1CSCN1 [Compound 11]	0.1 to 1

same assay, conditions: U937 human monocytic cell lysate supernatant, compounds of the invention, read-out: PDE4 inhibition (IC50, 50% inhibition of cAMP disappearance)

SMILES	IC50 [nM]
O=C(O)c1cccc(S(=O)(=O)N2CCSC2C(=O)O[C@@H](Cc2c(Cl)c[n+]([O-])cc2Cl)c2ccc(OC(F)F)c(OCC3CC3)c2)c1 (single isomer, unassigned) [Compound 75, 4-((S)-2-((S)-3-(3-carboxyphenylsulfonyl)thiazolidine-2-carbonyloxy)-2-(3-(cyclopropylmethoxy)-4-(difluoromethoxy)phenyl)ethyl)-3,5-dichloropyridine 1-oxide or 4-((S)-2-((R)-3-(3-carboxyphenylsulfonyl)thiazolidine-2-carbonyloxy)-2-(3-(cyclopropylmethoxy)-4-(difluoromethoxy)phenyl)ethyl)-3,5-dichloropyridine 1-oxide]	< 0.1
CN(C)S(=O)(=O)c1cccc(S(=O)(=O)N2CCCC2C(=O)O[C@@H](Cc2c(Cl)c[n+]([O-])cc2Cl)c2ccc(OC(F)F)c(OCC3CC3)c2)c1 (stereo in doubt) [Compound 238, 3,5-dichloro-4-((S)-2-(3-(cyclopropylmethoxy)-4-(difluoromethoxy)phenyl)-2-((S)-1-(3-(N,N-dimethylsulfamoyl)phenylsulfonyl)pyrrolidine-2-carbonyloxy)ethyl)pyridine 1-oxide]	< 0.1
Cc1noc2ncc(S(=O)(=O)N3CCSC3C(=O)O[C@@H](Cc3c(Cl)c[n+]([O-])cc3Cl)c3ccc(OC(F)F)c(OCC4CC4)c3)cc12 (stereo in doubt) [Compound 239, 3,5-dichloro-4-((S)-2-(3-(cyclopropylmethoxy)-4-(difluoromethoxy)phenyl)-2-((S)-3-(3-methylisoxazolo[5,4-b]pyridin-5-ylsulfonyl)thiazolidine-2-carbonyloxy)ethyl)pyridine 1-oxide]	< 0.1
Cc1nn(C)c2ncc(S(=O)(=O)N3CCSC3C(=O)O[C@@H](Cc3c(Cl)c[n+]([O-])cc3Cl)c3ccc(OC(F)F)c(OCC4CC4)c3)cc12 (stereo in doubt) [Compound 240, 3,5-dichloro-4-((S)-2-(3-(cyclopropylmethoxy)-4-(difluoromethoxy)phenyl)-2-((S)-3-(1,3-dimethyl-1H-pyrazolo[3,4-b]pyridin-5-ylsulfonyl)thiazolidine-2-carbonyloxy)ethyl)pyridine 1-oxide]	< 0.1
COC(=O)c1cc(CN2CCCC2C(=O)O[C@@H](Cc2c(Cl)c[n+]([O-])cc2Cl)c2ccc(OC(F)F)c(OCC3CC3)c2)oc1C (stereo partly drawn) [Compound 15, 3,5-dichloro-4-((2S)-2-(3-(cyclopropylmethoxy)-4-(difluoromethoxy)phenyl)-2-(1-((4-(methoxycarbonyl)-5-methylfuran-2-yl)methyl)pyrrolidine-2-carbonyloxy)ethyl)pyridine 1-oxide]	< 0.1
CS(=O)(=O)Nc1cc(C(=O)N2CCC[C@H]2C(=O)O[C@@H](Cc2c(Cl)c[n+]([O-])cc2Cl)c2ccc(OC(F)F)c(OCC3CC3)c2)ccc1OCC1CC1 [Compound 19, 3,5-dichloro-4-((S)-2-((S)-1-(4-(cyclopropylmethoxy)-3-(methylsulfonamido)benzoyl)pyrrolidine-2-carbonyloxy)-2-(3-(cyclopropylmethoxy)-4-(difluoromethoxy)phenyl)ethyl)pyridine 1-oxide]	0.1 to 1
Nc1ccc(C(=O)N2CCSC2C(=O)O[C@@H](Cc2c(Cl)c[n+]([O-])cc2Cl)c2ccc(OC(F)F)c(OCC3CC3)c2)cc1 (stereo partly drawn) [Compound 26, 4-((2S)-2-(3-(4-aminobenzoyl)thiazolidine-2-carbonyloxy)-2-(3-(cyclopropylmethoxy)-4-(difluoromethoxy)phenyl)ethyl)-3,5-dichloropyridine 1-oxide]	1 to 10
COc1ccc(C(=O)N2CCC[C@H]2C(=O)O[C@@H](Cc2c(Cl)c[n+]([O-])cc2Cl)c2ccc(OC(F)F)c(OCC3CC3)c2)cc1OS(C)(=O)=O [Compound 30, 3,5-dichloro-4-((S)-2-(3-(cyclopropylmethoxy)-4-(difluoromethoxy)phenyl)-2-((S)-1-(4-methoxy-3-(methylsulfonyloxy)benzoyl)pyrrolidine-2-carbonyloxy)ethyl)pyridine-1-oxide]	< 0.1
COc1ccc(C(=O)N2CCSC2C(=O)O[C@@H](Cc2c(Cl)c[n+]([O-])cc2Cl)c2ccc(OC(F)F)c(OCC3CC3)c2)cc1S(=O)(=O)N(C)C (stereo partly drawn) [Compound 32, 3,5-dichloro-4-((2S)-2-(3-(cyclopropylmethoxy)-4-(difluoromethoxy)phenyl)-2-(3-(3-(N,N-dimethylsulfamoyl)-4-methoxybenzoyl)thiazolidine-2-carbonyloxy)ethyl)pyridine 1-oxide]	< 0.1
O=C(O[C@@H](Cc1c(Cl)c[n+]([O-])cc1Cl)c1ccc(OC(F)F)c(OCC2CC2)c1)C1SCCN1C(=O)c1ccc(CN2CCOCC2)cc1 (stereo partly drawn) [Compound 33, 3,5-dichloro-4-((2S)-2-(3-(cyclopropylmethoxy)-4-(difluoromethoxy)phenyl)-2-(3-(4-(morpholinomethyl)benzoyl)thiazolidine-2-carbonyloxy)ethyl)pyridine 1-oxide]	< 0.1
CN(C)Cc1cccc(C(=O)N2CCSC2C(=O)O[C@@H](Cc2c(Cl)c[n+]([O-])cc2Cl)c2ccc(OC(F)F)c(OCC3CC3)c2)c1 (stereo partly drawn) [Compound 34, 3,5-dichloro-4-((2S)-2-(3-(cyclopropylmethoxy)-4-(difluoromethoxy)phenyl)-2-(3-(3-((dimethylamino)methyl)benzoyl)thiazolidine-2-carbonyloxy)ethyl)pyridine 1-oxide]	< 0.1
O=C(O[C@@H](Cc1c(Cl)c[n+]([O-])cc1Cl)c1ccc(OC(F)F)c(OCC2CC2)c1)C1SCCN1C(=O)c1cncs1 (stereo partly drawn) [Compound 38, 3,5-dichloro-4-((2S)-2-(3-(cyclopropylmethoxy)-4-(difluoromethoxy)phenyl)-2-(3-(thiazole-5-carbonyl)thiazolidine-2-carbonyloxy)ethyl)pyridine 1-oxide]	< 0.1
CS(=O)(=O)N(CCN1CCOCC1)c1cc(OCC2CC2)cc(C(=O)N2CCSC2C(=O)O[C@@H](Cc2c(Cl)c[n+]([O-])cc2Cl)c2ccc(OC(F)F)c(OCC3CC3)c2)c1 (stereo partly drawn) [Compound 49, 3,5-dichloro-4-((2S)-2-(3-(cyclopropylmethoxy)-4-(difluoromethoxy)phenyl)-2-(3-(3-(cyclopropylmethoxy)-5-(N-(2-morpholinoethyl)methylsulfonamido)benzoyl)thiazolidine-2-carbonyloxy)ethyl)pyridine 1-oxide formate]	0.1 to 1
COc1ccc(S(=O)(=O)N2CCC[C@H]2C(=O)O[C@@H](Cc2c(Cl)c[n+]([O-])cc2Cl)c2ccc(OC(F)F)c(OCC3CC3)c2)cc1OC [Compound 53, 3,5-dichloro-4-((S)-2-(3-(cyclopropylmethoxy)-4-(difluoromethoxy)phenyl)-2-((S)-1-(3,4-dimethoxyphenylsulfonyl)pyrrolidine-2-carbonyloxy)ethyl)pyridine 1-oxide]	< 0.1
CN(C)C(=O)c1cccc(S(=O)(=O)N2CCC[C@H]2C(=O)O[C@@H](Cc2c(Cl)c[n+]([O-])cc2Cl)c2ccc(OC(F)F)c(OCC3CC3)c2)c1 [Compound 54, 3,5-dichloro-4-((S)-2-(3-(cyclopropylmethoxy)-4-(difluoromethoxy)phenyl)-2-((S)-1-(3-(dimethylcarbamoyl)phenylsulfonyl)pyrrolidine-2-carbonyloxy)ethyl)pyridine 1-oxide]	< 0.1
CN(C)C(=O)c1cccc(S(=O)(=O)N2CCC[C@@H]2C(=O)O[C@@H](Cc2c(Cl)c[n+]([O-])cc2Cl)c2ccc(OC(F)F)c(OCC3CC3)c2)c1 [Compound 55, 3,5-dichloro-4-((S)-2-(3-(cyclopropylmethoxy)-4-(difluoromethoxy)phenyl)-2-((R)-1-(3-(dimethylcarbamoyl)phenylsulfonyl)pyrrolidine-2-carbonyloxy)ethyl)pyridine 1-oxide]	< 0.1
O=C(O[C@@H](Cc1c(Cl)c[n+]([O-])cc1Cl)c1ccc(OC(F)F)c(OCC2CC2)c1)C1SCCN1S(=O)(=O)c1ccccc1 (stereo partly drawn) [Compound 57, 3,5-dichloro-4-((2S)-2-(3-(cyclopropylmethoxy)-4-(difluoromethoxy)phenyl)-2-(3-(phenylsulfonyl)thiazolidine-2-carbonyloxy)ethyl)pyridine 1-oxide]	0.1 to 1
O=C1NC(=O)c2cc(S(=O)(=O)N3CCSC3C(=O)O[C@@H](Cc3c(Cl)c[n+]([O-])cc3Cl)c3ccc(OC(F)F)c(OCC4CC4)c3)ccc21 (stereo partly drawn) [Compound 58, 3,5-dichloro-4-((2S)-2-(3-(cyclopropylmethoxy)-4-(difluoromethoxy)phenyl)-2-(3-(1,3-dioxoisoindolin-5-ylsulfonyl)thiazolidine-2-carbonyloxy)ethyl)pyridine 1-oxide]	< 0.1
NS(=O)(=O)c1cccc(S(=O)(=O)N2CCSC2C(=O)O[C@@H](Cc2c(Cl)c[n+]([O-])cc2Cl)c2ccc(OC(F)F)c(OCC3CC3)c2)c1 (stereo partly drawn) [Compound 59, 3,5-dichloro-4-((2S)-2-(3-(cyclopropylmethoxy)-4-(difluoromethoxy)phenyl)-2-(3-(3-sulfamoylphenylsulfonyl)thiazolidine-2-carbonyloxy)ethyl)pyridine 1-oxide]	0.1 to 1
